Experimental data: PubChem BioAssay AID1745853 (National Center for Advancing Translational Sciences (NCATS), 2022)
The other results are listed elsewhere or left out. The main result of the screen is listed elsewhere. These columns were measured beside it and carry no call.

What was measured:
Assay in all cases: Primary Screen for Target Class Profiling of Small Molecule Inhibitors of Methyltransferases
[1] = target: Glycine N-methyltransferase (Homo sapiens) (UniProt Q14749); details: purified enzyme, MTase-Glo SAH luminescence; measured here: GNMT inhibition; at 40 µM; stronger effect = lower value
Procedure, shortened: (§1)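 Each enzyme was assayed with SAM and its substrate. SAH formation detected by MTase-Glo luminescence; single-point 40 uM screen[…].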

[2] = target: Guanidinoacetate N-methyltransferase (Homo sapiens) (UniProt Q14353); details: purified enzyme, MTase-Glo SAH luminescence; measured here: GAMT inhibition; at 40 µM; stronger effect = lower value
Procedure, shortened: as §1

[3] = target: Histamine N-methyltransferase (Homo sapiens) (UniProt P50135); details: purified enzyme, MTase-Glo SAH luminescence; measured here: HNMT inhibition; at 40 µM; stronger effect = lower value
Procedure, shortened: as §1

[4] = target: Nicotinamide N-methyltransferase (Homo sapiens) (UniProt P40261); details: purified enzyme, MTase-Glo SAH luminescence; measured here: NNMT inhibition; at 40 µM; stronger effect = lower value
Procedure, shortened: as §1

[5] = target: Phenylethanolamine N-methyltransferase (Homo sapiens) (UniProt P11086); details: purified enzyme, MTase-Glo SAH luminescence; measured here: PNMT inhibition; at 40 µM; stronger effect = lower value
Procedure, shortened: as §1
% is scaled to controls: 0 for no effect and ±100 for the full control effect.

Row | Structure (SMILES) | activity change, negative = inhibition [1] [%] | activity change, negative = inhibition [2] [%] | activity change, negative = inhibition [3] [%] | activity change, negative = inhibition [4] [%] | activity change, negative = inhibition [5] [%]
1 | CC1(C(=O)NC2CCCCCC2)Cn2nc(-c3cccs3)cc2C(=O)N1c1ccccc1F (configuration not stated) | 3.73 | 1.44 | 10.2 | 12 | 4.8
2 | CCCC1(CO)CCCN(CC(=O)NC(C)(C)CC)C1 (configuration not stated) | -4.24 | -4.49 | -1.59 | -7.78 | -5.14
3 | O=C(NCc1cc2n(n1)CCCNC2)c1ccc(Cn2cnnn2)cc1 | -2.42 | 4.21 | -0.187 | -2.44 | 11.9
4 | CCCNc1ccc2ncc(-c3ccc4[nH]ncc4c3)n2n1 | -70.3 | -33.8 | -75.2 | -40.5 | -48.7
5 | C=C1[C@H](CO)[C@@H](O)C[C@@H]1n1cnc2c(=O)[nH]c(N)nc21 | 7.08 | 3.9 | 5.54 | -8.41 | 1.77
6 | CN(C)CCN1CC2(CCN(C(=O)CCCS(N)(=O)=O)CC2)OC1=O | -1.31 | -5.81 | 0.164 | -1.25 | -3.67
7 | Cc1ccc(Cn2nc3n(C(C)C)c(=O)c4ccc(C(=O)NC5CCCCC5)cc4n3c2=O)cc1 | 5.99 | 0 | 11 | 5.04 | 5.68
8 | CC(C)(O)C(O)C(=O)OCc1ccc(O[C@@H]2O[C@H](CO)[C@@H](O)[C@H](O)[C@H]2O)cc1 (some centres not stated) | -0.315 | 1.83 | 3.51 | -9.65 | 3.53
9 | CN(Cc1ccccc1)Cc1cn([C@H]2CO[C@H]3[C@@H]2OC[C@@H]3NCc2ccccc2)nn1 | -22.8 | -19.6 | 2.33 | -4 | -19
10 | COC(=O)c1cc2n(n1)CC(C)(C(=O)NC1CCC(C)CC1)N(Cc1ccccc1)C2=O (configuration not stated) | 0.864 | 4.74 | 3.74 | -4.73 | 1.59
11 | CCCn1c(=O)c2cc(F)ccc2n2c(SCC(=O)N3CCN(c4ccccc4F)CC3)nnc12 | -3.83 | 2.3 | 6.64 | -13 | 0.733
12 | C=C1CCC2[C@](C)(CCC[C@]2(C)C(=O)O)[C@H]1CC/C(C)=C/C(=O)OC (some centres not stated) | -0.716 | 1.27 | 10.3 | -16.1 | -2.66
13 | CC(=C/C(=O)O)/C=C/[C@]1(O)[C@@]2(C)CO[C@]1(C)C[C@H](O[C@@H]1O[C@H](CO)[C@@H](O)[C@H](O)[C@H]1O)C2 | 0.133 | -3 | 5.33 | -13.6 | 4.39
14 | CCOC(=O)c1cc2n(n1)CC(C)(C(=O)NC1CCCCC1)N(Cc1ccc(Cl)cc1)C2=O (configuration not stated) | -0.945 | 0.923 | -4.1 | -9.65 | -3.44
15 | C[C@H]1CC(=O)C2=C(C1)C(O)C(O)[C@@]1(O)[C@H]2C(=O)c2cccc(O)c2[C@@H]1O (some centres not stated) | -1.74 | -3.13 | 9.19 | -14.5 | -8.44
16 | CC/C=C(\C(=O)N[C@@H]1C(=O)N2C(C(=O)OCOC(=O)C(C)(C)C)=C(COC(N)=O)CS[C@H]12)c1csc(N)n1 | -8.05 | – | -1.15 | – | –
17 | NC(=O)c1cnc(-c2ccc(C3(N)CCC3)cc2)c(-c2ccccc2)c1 | -18.7 | 6.8 | -39.7 | -61.1 | -2.81
18 | O=C(NCCc1ccc(F)cc1)c1cc(CN2CCOCC2)on1 | -3.9 | -4.64 | -0.469 | -6.6 | -29.6
19 | Cc1cccc(C2CN(C)CCc3c2cc(O)c(O)c3Cl)c1 (configuration not stated) | -21.8 | 12.5 | -42.5 | -3.91 | 4.23
20 | C=CCn1c(=O)c2ccc(C(=O)NC(C)C)cc2n2c(=O)n(CC(N)=O)nc12 | 9.4 | 2.35 | 12.5 | 6.51 | 6.95
21 | CC(C)CCn1c(=O)c2ccc(C(=O)NCC(C)C)cc2n2c(=O)n(Cc3ccc(F)cc3Cl)nc12 | 6.71 | 0.208 | 9.14 | 3.57 | 3.25
22 | Cc1cc(C)cc(NC(=O)CSc2nnc3n(CC(C)C)c(=O)c4ccccc4n23)c1 | 1.96 | 0.56 | 7.98 | -6.33 | 4.13
23 | COc1ccc(OC)c2c1cc1n2CC(C)(C(=O)NC2CCCCCC2)N(Cc2cccnc2)C1=O (configuration not stated) | 2.01 | 2.04 | 8.55 | -6.58 | 4.82
24 | Cc1nc(N=Nc2cc(S(=O)(=O)O)c3cc([N+](=O)[O-])cc(S(=O)(=O)O)c3c2)c(COP(=O)(O)O)c(C=O)c1O | -26.5 | 3.33 | -1.5 | -4.57 | 4.56
25 | CN1CCN(c2ccc(Nc3cc(-c4cccc(-n5ccc6cc(C7CC7)cc(F)c6c5=O)c4CO)cn(C)c3=O)nc2)CC1 | -10.6 | -8.43 | -36.1 | -22.1 | -8.56
26 | Cc1cnc(CC2CCCN(C(=O)N(C)C)C2)n1C(C)C (configuration not stated) | 1.55 | -5.65 | -11.1 | 2.67 | 0.786
27 | COCCN1C(=O)[C@H]2CN(Cc3ccc(C)s3)C[C@H]2C1=O | 0.907 | -4.01 | 1.86 | -1.3 | -10.9
28 | CSc1ccc(CCNC(=O)c2cc3n(n2)CC(C)(C(=O)NC2CCCC2)N(C)C3=O)cc1 (configuration not stated) | -0.713 | 0 | 4.79 | 3.01 | 2.13
29 | COc1ccc(-c2cc3n(n2)CC(C)(C(=O)NCc2ccccc2)N(Cc2ccc4c(c2)OCO4)C3=O)cc1 (configuration not stated) | 4.74 | 1.59 | 3.16 | 7.42 | 1.47
